# Test results as given in patent US20240052065A1 (Boehringer Ingelheim, published 2024).
# B1: bispecific binding molecule CDH3/TRAILR2v1 (bispecific antibody, human IgG1, kappa)
# heavy: EVQLVQSGAEVKKPGESLKISCKGSGYSFTSYWIGWVRQMPGKGLEWMGIIYPGDSDTRYSPSFQGQVTISADKSISTAYLQWSSLKASDTAMYYCARHSFFDYWGQGTLVTVSSASTKGPSVFPLAPSSKSTSGGTAALGCLVKDYFPEPVTVSWNSGALTSGVHTFPAVLQSSGLYSLSSVVTVPSSSLGTQTYICNVNHKPSNTKVDKRV[letters of human IgG1 Fc with changes not shown]GGSGGSSSELTQDPAVSVALGQTVRITCQGDSLRSYYASWYQQKPGQAPVLVIYGKNNRPSGIPDRFSGSSSGNTASLTITGAQAEDEADYYCNSRDSSGNHVVFGGGTKLTVLGGGGSGGGGSGGGGSGGGGSEVQLVQSGGGVERPGGSLRLSCAASGFTFDDYGMSWVRQAPGKGLEWVSGINWNGGSTGYADSVKGRVTISRDNAKNSLYLQMNSLRAEDTAVYYCAKILGAGRGWYFDLWGKGTTVTVSS
# light: [letters of about 100 residues not shown][letters of about 120 residues not shown]
# notes: also called CDH3/TR2v1
# How the values were obtained:
# [1] = molecular target: human CDH3 on the surface of GP2d cells (human, UniProt P22223 108-829); test: cell-based or functional assay
# [2] = molecular target: T1, recombinant human CDH3 [EC2-EC3] (human, UniProt P22223 216-440, limits assumed); test: SPR (ProteOn XPR36), bispecific captured on protein A/G, CDH3 EC2-EC3 as analyte
# T1 construct: no separate entry is named for EC3; also called HuCDH3_EC2-EC3; EC2-EC3 peptide
# [3] = molecular target: T2, recombinant human CDH3, full-length (human, UniProt P22223 part only, limits assumed); test: SPR (ProteOn XPR36), bispecific captured on protein A/G, CDH3 as analyte, 1:1 Langmuir fit
# T2 construct: also called HuCDH3 full-length; human full-length CDH3
# [4] = molecular target: T3, recombinant human CDH3 [EC1-EC2] (human, UniProt P22223 part only, limits assumed); test: as above
# T3 construct: also called HuCDH3 EC1-EC2
binder,measurement,setting,value
B1,"cell viability of GP2d cells after 24 h (CellTiter-Glo), EC50",[1],0.337 nM
same,"cell viability of GP2d cells after 24 h (CellTiter-Glo), potency against Lexatumumab alone",[1],17 fold
same,binding result,[2],no binding (tested: 500 nM analyte)
same,Kd,[3],8.52 nM
same,Kd,[4],6.7 nM
